According to PMC7069092:
Read-outs that look alike come from different tables or passages of the source. No constants are given. Whether binding was seen depends on the method and setting. Binding seen in cells or lysates may run through a third protein. Some entries that bind do so weakly or less than the wild type. For some of these results: Tags and fused reporters may be left off the sequences shown. Each block holds one molecule with its values, some of them ahead of it.

Sequences of proteins named here, by UniProt entry; tags and fusion partners are left off. A change or cut given only in a name is not applied to a line headed by its entry. A line that says so, or that is headed by a name, gives the form on record, which may keep a tag or linker. Residues count along the entry.
UniProt P11021, residues 19-654: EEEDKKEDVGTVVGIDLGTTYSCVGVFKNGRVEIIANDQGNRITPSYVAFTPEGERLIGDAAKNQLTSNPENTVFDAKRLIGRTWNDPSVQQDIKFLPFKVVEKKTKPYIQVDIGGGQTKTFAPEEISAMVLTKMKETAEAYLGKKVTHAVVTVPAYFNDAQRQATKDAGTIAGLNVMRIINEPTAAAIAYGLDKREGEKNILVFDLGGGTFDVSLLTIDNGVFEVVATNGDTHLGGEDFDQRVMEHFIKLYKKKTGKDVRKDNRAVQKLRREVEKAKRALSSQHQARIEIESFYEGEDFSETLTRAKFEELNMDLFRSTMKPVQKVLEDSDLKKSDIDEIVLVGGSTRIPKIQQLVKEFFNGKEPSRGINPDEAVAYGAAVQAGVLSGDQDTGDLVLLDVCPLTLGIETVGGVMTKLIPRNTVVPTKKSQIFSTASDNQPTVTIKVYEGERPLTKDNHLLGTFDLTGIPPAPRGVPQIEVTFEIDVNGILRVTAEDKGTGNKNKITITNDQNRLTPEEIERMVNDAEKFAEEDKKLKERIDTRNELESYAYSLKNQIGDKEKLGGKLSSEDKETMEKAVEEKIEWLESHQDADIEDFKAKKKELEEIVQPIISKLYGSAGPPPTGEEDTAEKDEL
UniProt P10275: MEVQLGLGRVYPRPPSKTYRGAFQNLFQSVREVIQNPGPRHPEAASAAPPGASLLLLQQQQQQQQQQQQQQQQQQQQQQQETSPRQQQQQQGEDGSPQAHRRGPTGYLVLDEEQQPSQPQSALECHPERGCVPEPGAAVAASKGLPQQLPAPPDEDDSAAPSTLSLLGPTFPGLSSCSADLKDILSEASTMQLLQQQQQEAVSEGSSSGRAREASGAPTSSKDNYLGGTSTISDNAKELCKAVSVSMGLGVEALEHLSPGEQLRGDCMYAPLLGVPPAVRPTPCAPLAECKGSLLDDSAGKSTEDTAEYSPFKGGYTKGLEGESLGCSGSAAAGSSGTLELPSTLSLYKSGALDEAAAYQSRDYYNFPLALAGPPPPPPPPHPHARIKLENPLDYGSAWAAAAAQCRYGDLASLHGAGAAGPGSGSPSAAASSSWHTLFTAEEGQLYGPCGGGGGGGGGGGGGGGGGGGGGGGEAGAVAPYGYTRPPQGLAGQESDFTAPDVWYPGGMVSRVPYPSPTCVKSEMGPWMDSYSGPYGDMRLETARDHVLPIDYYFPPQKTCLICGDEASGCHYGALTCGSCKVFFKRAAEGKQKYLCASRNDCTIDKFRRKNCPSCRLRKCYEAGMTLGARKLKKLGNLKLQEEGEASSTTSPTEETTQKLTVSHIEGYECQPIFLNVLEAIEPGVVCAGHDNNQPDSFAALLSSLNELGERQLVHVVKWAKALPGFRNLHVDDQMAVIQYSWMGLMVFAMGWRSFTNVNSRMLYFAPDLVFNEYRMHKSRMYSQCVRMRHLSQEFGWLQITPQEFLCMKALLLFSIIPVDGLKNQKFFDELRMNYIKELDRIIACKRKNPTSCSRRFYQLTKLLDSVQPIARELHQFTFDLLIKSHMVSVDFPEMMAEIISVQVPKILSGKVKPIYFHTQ
Androgen receptor splice variant 7 (AR-V7) (human (endogenous in 22Rv1)) (P10275-3, form named): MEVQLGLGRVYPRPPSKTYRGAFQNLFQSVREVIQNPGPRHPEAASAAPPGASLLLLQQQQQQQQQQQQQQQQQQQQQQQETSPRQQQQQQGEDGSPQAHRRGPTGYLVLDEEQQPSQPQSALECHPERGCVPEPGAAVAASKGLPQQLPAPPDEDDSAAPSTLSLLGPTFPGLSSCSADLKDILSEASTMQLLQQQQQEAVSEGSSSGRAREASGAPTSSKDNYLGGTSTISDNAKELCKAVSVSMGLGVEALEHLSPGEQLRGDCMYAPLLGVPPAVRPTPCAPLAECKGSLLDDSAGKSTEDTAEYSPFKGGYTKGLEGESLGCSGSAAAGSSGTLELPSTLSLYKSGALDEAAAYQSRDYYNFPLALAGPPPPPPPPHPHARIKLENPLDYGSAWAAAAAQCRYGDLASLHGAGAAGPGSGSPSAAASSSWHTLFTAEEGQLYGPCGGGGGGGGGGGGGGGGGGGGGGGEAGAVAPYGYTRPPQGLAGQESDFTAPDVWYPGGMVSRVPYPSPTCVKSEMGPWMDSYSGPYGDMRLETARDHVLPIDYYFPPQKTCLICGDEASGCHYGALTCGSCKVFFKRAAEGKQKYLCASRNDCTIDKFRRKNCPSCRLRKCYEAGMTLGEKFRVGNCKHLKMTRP
UniProt Q00987: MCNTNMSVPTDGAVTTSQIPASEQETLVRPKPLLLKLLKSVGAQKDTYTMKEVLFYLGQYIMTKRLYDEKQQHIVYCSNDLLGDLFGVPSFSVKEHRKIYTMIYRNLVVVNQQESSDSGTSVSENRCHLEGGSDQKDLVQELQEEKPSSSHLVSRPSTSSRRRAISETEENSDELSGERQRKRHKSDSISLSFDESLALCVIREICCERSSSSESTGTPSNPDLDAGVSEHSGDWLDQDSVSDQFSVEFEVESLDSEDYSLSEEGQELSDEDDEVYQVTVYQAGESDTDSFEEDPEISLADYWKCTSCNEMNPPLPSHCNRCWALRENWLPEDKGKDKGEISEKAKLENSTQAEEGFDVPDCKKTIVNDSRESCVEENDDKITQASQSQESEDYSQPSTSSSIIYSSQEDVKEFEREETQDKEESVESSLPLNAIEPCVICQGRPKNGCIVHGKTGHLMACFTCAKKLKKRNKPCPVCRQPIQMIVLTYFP
UniProt Q9UNE7: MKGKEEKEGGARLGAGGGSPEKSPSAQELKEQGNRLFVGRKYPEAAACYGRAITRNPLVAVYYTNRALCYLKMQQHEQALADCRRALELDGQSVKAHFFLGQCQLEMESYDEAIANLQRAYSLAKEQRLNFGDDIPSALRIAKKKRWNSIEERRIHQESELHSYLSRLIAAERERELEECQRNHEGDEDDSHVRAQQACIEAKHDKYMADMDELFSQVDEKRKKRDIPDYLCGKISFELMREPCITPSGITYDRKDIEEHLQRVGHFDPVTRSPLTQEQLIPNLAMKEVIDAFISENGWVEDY

Tests used:
[1] = target: glucose-regulated protein 78kD (GRP78, also known as BiP) (human (endogenous in 22Rv1)) (UniProt P11021); assay: co-IP; GRP78 antibody beads, 22Rv1 lysate (RIPA buffer), endogenous proteins, immunoblot for AR-FL and AR-V7; also cells exposed to rutaecarpine for 12 h (Figure 2H, interaction increased; its precipitating antibody is not stated)
[2] = target: glucose-regulated protein 78kD (GRP78, also known as BiP) (human (endogenous in 22Rv1)) (UniProt P11021); assay: co-IP; GRP78 antibodies, cytoplasmic and nuclear extracts of 22Rv1 cells, immunoblot for GRP78, SIAH2 and AR-V7
[3] = target: Androgen receptor splice variant 7 (AR-V7) (human (endogenous in 22Rv1)) (UniProt P10275); assay: co-IP; AR-V7 antibodies, cytoplasmic and nuclear extracts of 22Rv1 cells, immunoblot for GRP78, SIAH2 and AR-V7
[4] = target: Androgen receptor splice variant 7 (AR-V7) (human (endogenous in 22Rv1)) (UniProt P10275); assay: co-IP; AR-V7 antibody or control IgG on Dynabeads, 22Rv1 lysate (RIPA buffer), 4 °C 1 h, washed with PBS-T; endogenous proteins, immunoblot
[5] = target: glucose-regulated protein 78kD (GRP78, also known as BiP) (human (endogenous in 22Rv1)) (UniProt P11021); assay: co-IP; 22Rv1 cells, endogenous GRP78 with SIAH2, STUB1 or MDM2; precipitating antibody not stated
FLAG-GRP78 (human) [6] = target: FLAG-GRP78 (human) (UniProt P11021); assay: co-IP; FLAG-tag antibodies, HEK293T cells co-transfected for 48 h, immunoblot for HA or Myc and FLAG
[7] = target: Androgen receptor splice variant 7 (AR-V7) (human (endogenous in 22Rv1)) (UniProt P10275); assay: co-IP; cells overexpressing GRP78 (Figure S3A; legend, cells and antibodies not shown)
FLAG-GRP78 (human) [8] = target: FLAG-GRP78 (human) (UniProt P11021); assay: co-IP; FLAG-tag antibodies, HEK293T cells co-transfected for 48 h, immunoblot for HA or Myc and FLAG; remark: listed apart in the source

binding [1]: binds | binding [2]: binds
Molecule: Androgen receptor splice variant 7 (AR-V7) (from UniProt P10275-3 1-644)

binding [3]: binds | binding [4]: binds
Molecule: glucose-regulated protein 78kD (GRP78, also known as BiP) (from UniProt P11021 19-654)

binding [5]: no binding
Molecule: MDM2 (from UniProt Q00987 1-491) (enzyme)

binding [1]: binds weakly
Molecule: androgen receptor, AR-FL (from UniProt P10275 1-920)

binding [5]: no binding
Molecule: STUB1/CHIP (from UniProt Q9UNE7 1-303) (enzyme)

binding (FLAG-GRP78 (human) [6]): binds
Molecule: HA-AR-V7 WT (from UniProt P10275-3 1-644)

binding [5]: binds | binding [3]: binds | binding [7]: binds | binding [2]: binds
B1: siah E3 ubiquitin protein ligase 2 (SIAH2) (enzyme, UniProt O43255 1-324)
chain: MSRPSSTGPSANKPCSKQPPPQPQHTPSPAAPPAAATISAAGPGSSAVPAAAAVISGPGGGGGAGPVSPQHHELTSLFECPVCFDYVLPPILQCQAGHLVCNQCRQKLSCCPTCRGALTPSIRNLAMEKVASAVLFPCKYATTGCSLTLHHTEKPEHEDICEYRPYSCPCPGASCKWQGSLEAVMSHLMHAHKSITTLQGEDIVFLATDINLPGAVDWVMMQSCFGHHFMLVLEKQEKYEGHQQFFAIVLLIGTRKQAENFAYRLELNGNRRRLTWEATPRSIHDGVAAAIMNSDCLVFDTAIAHLFADNGNLGINVTISTCCP

binding (FLAG-GRP78 (human) [8]): binds
B2: Myc-SIAH2 (enzyme, UniProt O43255 1-324)
chain: MSRPSSTGPSANKPCSKQPPPQPQHTPSPAAPPAAATISAAGPGSSAVPAAAAVISGPGGGGGAGPVSPQHHELTSLFECPVCFDYVLPPILQCQAGHLVCNQCRQKLSCCPTCRGALTPSIRNLAMEKVASAVLFPCKYATTGCSLTLHHTEKPEHEDICEYRPYSCPCPGASCKWQGSLEAVMSHLMHAHKSITTLQGEDIVFLATDINLPGAVDWVMMQSCFGHHFMLVLEKQEKYEGHQQFFAIVLLIGTRKQAENFAYRLELNGNRRRLTWEATPRSIHDGVAAAIMNSDCLVFDTAIAHLFADNGNLGINVTISTCCP
